The labels stand for the following.
T1: Alb3-Cub: mature Alb3 fused to the C-terminal half of ubiquitin (split-ubiquitin bait) (Arabidopsis thaliana) (UniProt Q8LBP4)
T1 sequence: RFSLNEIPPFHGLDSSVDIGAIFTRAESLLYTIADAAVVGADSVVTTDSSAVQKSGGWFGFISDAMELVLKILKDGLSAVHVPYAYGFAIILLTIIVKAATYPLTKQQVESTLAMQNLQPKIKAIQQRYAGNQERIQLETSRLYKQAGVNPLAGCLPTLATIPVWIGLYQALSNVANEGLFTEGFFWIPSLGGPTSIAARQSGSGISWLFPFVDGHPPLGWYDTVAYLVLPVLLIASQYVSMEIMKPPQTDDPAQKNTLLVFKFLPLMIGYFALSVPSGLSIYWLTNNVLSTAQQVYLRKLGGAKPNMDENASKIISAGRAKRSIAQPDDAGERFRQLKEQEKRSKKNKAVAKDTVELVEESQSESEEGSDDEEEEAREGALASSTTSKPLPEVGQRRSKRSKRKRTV

B1: NubG-uL4cΔC20: A. thaliana uL4c aa 50-262 fused to NubG (domain or fragment, UniProt O50061 50-262)
chain: QLATLPILSFEGEKVGETYLDLKAAPEDTARAVVHRAIVTDLNNKRRGTASTLTRGEVRGGGIKPYSQKKTGHARRGSQRTPLRPGGGVVFGPRPKDWSIKINRKEKKLAISTALSSAASAEGGAIVVEEFGEKFEKPKTKDFLAAMQRWGLDPKEKAMFLMIDVDENVAKSSRNIGTLRMLTPRTLNLFDILNADKLVLTPAAVEFLNARYG
B2: NubG-uL4 of Synechocystis sp. PCC6803, full length (aa 1-210) (protein, UniProt P73319 1-210)
chain: MVDCIVKNWQGEEVGNASLTLRVAKEENAAHIVHRALVRQQNNARQGNASAKTRAEVRGGGRKPWKQKGTGRARAGSIRSPLWRGGGVIFGPKPRDYSQKMNRKERRLALRTAIASRADNMVVVEAFGDQFSQPKTKELATALTRWGAKPEKRVLLILDEIPENVFLSGRNIPYLKILRADNLNIYDVLVADTIVATATALEKIQEVYGE
B3: NubG-uL4+C20 (Synechocystis): full-length Synechocystis sp. PCC6803 uL4 fused to A. thaliana uL4c aa 263-282 (protein, UniProt P73319 1-210; O50061 263-282)
chain: MVDCIVKNWQGEEVGNASLTLRVAKEENAAHIVHRALVRQQNNARQGNASAKTRAEVRGGGRKPWKQKGTGRARAGSIRSPLWRGGGVIFGPKPRDYSQKMNRKERRLALRTAIASRADNMVVVEAFGDQFSQPKTKELATALTRWGAKPEKRVLLILDEIPENVFLSGRNIPYLKILRADNLNIYDVLVADTIVATATALEKIQEVYGEVDAVEEEDDDEDETEGSEEA
B4: NubG-uL4cΔN231: A. thaliana uL4c aa 232-282 fused to NubG (domain or fragment, UniProt O50061 232-282)
chain: TPRTLNLFDILNADKLVLTPAAVEFLNARYGVDAVEEEDDDEDETEGSEEA
B5: NubG-uL4c: A. thaliana mature uL4c (aa 50-282) fused to NubG (split-ubiquitin prey) (protein, UniProt O50061 50-282)
chain: QLATLPILSFEGEKVGETYLDLKAAPEDTARAVVHRAIVTDLNNKRRGTASTLTRGEVRGGGIKPYSQKKTGHARRGSQRTPLRPGGGVVFGPRPKDWSIKINRKEKKLAISTALSSAASAEGGAIVVEEFGEKFEKPKTKDFLAAMQRWGLDPKEKAMFLMIDVDENVAKSSRNIGTLRMLTPRTLNLFDILNADKLVLTPAAVEFLNARYGVDAVEEEDDDEDETEGSEEA

These are yes or no findings as the source states them, for the method shown. Some results given as binding are weak or reduced against the parent protein; the word gives no strength. Tags and fused reporters may be left off the sequences shown.

For the test, the target named is T1, Alb3-Cub: mature Alb3 fused to the C-terminal half of ubiquitin (split-ubiquitin bait) (Arabidopsis thaliana). As to the kind of experiment: two-hybrid; yeast split-ubiquitin assay; Alb3 constructs fused to Cub, uL4 constructs fused to NubG; growth on selective medium (-LTH).
For the molecule B1, the binding entry was “no binding”.
B2: the binding result was “no binding”.
Turning to B3, the binding entry is listed as “binds”.
Take B4: the binding entry was “binds”.
For the molecule B5, the binding result is on record as “binds”.

These data come from publication PMC8733628.
